# Results as given in the BET-seq Pho4 binding data (Le et al. 2018).
# This is one part of the list. The energies were worked out here from pooled read counts, against the library average; single values are noisy.
# Target: T1, Pho4 (S. cerevisiae) (UniProt P07270)
# T1 sequence: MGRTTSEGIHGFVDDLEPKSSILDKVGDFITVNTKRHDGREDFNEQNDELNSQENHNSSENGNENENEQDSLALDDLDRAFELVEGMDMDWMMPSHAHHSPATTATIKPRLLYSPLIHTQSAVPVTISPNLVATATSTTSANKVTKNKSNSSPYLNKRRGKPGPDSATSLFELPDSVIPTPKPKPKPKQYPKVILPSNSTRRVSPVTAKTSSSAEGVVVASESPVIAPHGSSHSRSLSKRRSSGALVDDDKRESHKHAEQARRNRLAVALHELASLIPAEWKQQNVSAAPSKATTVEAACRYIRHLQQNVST
# Assay: relative binding free energy (BET-seq); higher = weaker binding
# Conditions: reference: library average
row,Sequence,relative binding free energy [kcal/mol]
1,ATGGTCACGTGAGTTC,0.23
2,GTTAACACGTGCGGCG,0.1
3,GGGCCCACGTGGGGGT,-0.27
4,TTGGGCACGTGAATCT,0.21
5,TGTGTCACGTGTTATC,0.06
6,AGGTTCACGTGAGTCT,0.27
7,TTTTTCACGTGATCGT,0.3
8,AGTAGCACGTGTTAGA,-0.13
9,AGGCGCACGTGAGAGT,0.2
10,AGGTTCACGTGCGACG,0.38
11,TTGTACACGTGGGCAG,-0.14
12,AGGGACACGTGAGTTA,0.24
13,GGACGCACGTGGCGAG,-0.03
14,TTAAGCACGTGTCTAT,-0.04
15,TTTGTCACGTGAATCT,0.26
16,ACTTGCACGTGGATGG,-0.02
17,GTGACCACGTGGTGAG,0
18,TATTCCACGTGGGCGT,0.04
19,TTCTGCACGTGATTGG,0.12
20,CGAAGCACGTGGGCTG,-0.16
21,TAAGTCACGTGCGTGG,-0.11
22,TGCTGCACGTGGTTTA,-0.12
23,GTTGGCACGTGAATCG,0.23

row,Sequence,relative binding free energy [kcal/mol]
1,GATGCCACGTGGTGGT,-0.04
2,AATATCACGTGTTTTT,0.08
3,ATTTTCACGTGTAGTA,0.24
4,CATTGCACGTGGTCTT,0
5,TACTGCACGTGGGGTA,-0.21
6,CTTTGCACGTGGTGAG,-0.17
7,TTAAACACGTGTTGGT,0.07
8,TCTTGCACGTGGTTAG,-0.01
9,TTTAGCACGTGCCTGG,-0.21
10,GAAAGCACGTGTTGGG,0.07
11,ATAAGCACGTGGTATA,-0.16
12,GTTACCACGTGGGGAT,-0.08
13,TGGGACACGTGTGATA,0.2
14,CTCGACACGTGGGGTA,-0.06
15,TTCTACACGTGGTATG,0.03
16,TCTATCACGTGGGTTA,-0.11
17,CTGGGCACGTGTAGGA,0.08
18,ATAGGCACGTGGACGG,-0.22
19,GGAGTCACGTGTGATA,0.25
20,ACGGTCACGTGTGTAT,0.09
21,CGTGGCACGTGGGAAG,-0.17
22,TGCTACACGTGGGGTT,-0.02
23,TCTTGCACGTGTCTTG,0

row,Sequence,relative binding free energy [kcal/mol]
1,TATGCCACGTGTTATG,-0.05
2,GAATTCACGTGAGGAT,0.55
3,ATAGACACGTGGTTAG,-0.17
4,TGCGTCACGTGTTTCA,0.1
5,AGCGGCACGTGGTTGA,-0.14
6,GGCATCACGTGTTGTG,0.16
7,GGATGCACGTGCTGGT,-0.07
8,TAGGGCACGTGTTAGA,-0.06
9,TTTCGCACGTGCGTTG,-0.13
10,TGATGCACGTGAGGCG,0.2
11,AATGGCACGTGAATAT,0.12
12,CTTTGCACGTGGATTG,0.11
13,GTCGGCACGTGGGAAA,-0.04
14,ATTGGCACGTGAATTT,0.14
15,TTGTGCACGTGTATGT,-0.06
16,GTGAACACGTGGGAGT,-0.01
17,AGGTTCACGTGGTTGG,0.3
18,GGTACCACGTGGGCAG,-0.1
19,GGATGCACGTGGCGGT,-0.12
20,TTATACACGTGTTACA,0.07
21,GCCTTCACGTGGTGTT,0.24
22,AGTGACACGTGCGTGG,-0.1
23,CTTTACACGTGTGAGT,0.27

row,Sequence,relative binding free energy [kcal/mol]
1,GAATACACGTGTTTTT,0.09
2,TCGGTCACGTGGTCTG,-0.11
3,TTGGCCACGTGTTGGA,-0.12
4,TCTGTCACGTGGCGTT,0.06
5,ACGTTCACGTGGGAGT,0.22
6,TCGGGCACGTGTCAGG,-0.2
7,AGAGTCACGTGAGGGC,0.38
8,GTTATCACGTGTTGTG,0.25
9,TATTGCACGTGTAGAA,0.13
10,ACTAGCACGTGTGGTT,-0.07
11,GCTAGCACGTGTGGAG,-0.05
12,ATGTTCACGTGGACGG,0.34
13,TTGAACACGTGTAAGG,0.18
14,TTTGACACGTGGAGAA,-0.02
15,TTCGTCACGTGTGGCG,0.09
16,TTAGTCACGTGGAGTT,0.09
17,TGGGACACGTGGTAAG,-0.08
18,GGTCTCACGTGCGCGG,0.29
19,AGTCTCACGTGTTTAT,0
20,TTGTGCACGTGGTGAA,0.02
21,GGTGTCACGTGTGTAG,0.23
22,TGTGTCACGTGGTACA,-0.12
23,GATGTCACGTGGGAAA,0.1

row,Sequence,relative binding free energy [kcal/mol]
1,ATCGGCACGTGGAGGC,0.07
2,TGTGTCACGTGGAGCG,0
3,TTGTTCACGTGGACGC,0.3
4,GTGACCACGTGTGGAG,0.01
5,GGTAGCACGTGAGAAG,0.09
6,AAGGCCACGTGATAGG,0.08
7,GGCGACACGTGGGGGA,0.09
8,TGAGCCACGTGAGGTA,0.09
9,TGGGGCACGTGGTGCT,-0.17
10,AGAGTCACGTGTTGCT,-0.02
11,ACTATCACGTGTTTGT,0.08
12,CGTAACACGTGCGGGG,-0.17
13,ATTAGCACGTGCAATG,0.1
14,GGGAACACGTGGGGAT,-0.01
15,TAGTACACGTGGTGTG,-0.02
16,CGAATCACGTGGTGGG,0.14
17,CGGGGCACGTGTAGAG,0.03
18,ATTGGCACGTGCAGGG,-0.1
19,CGGAGCACGTGGTTGA,-0.14
20,GAGGGCACGTGGGCAG,-0.17
21,TACTGCACGTGTTGTG,-0.03
22,GTTTGCACGTGGGACT,-0.03
23,AAGTTCACGTGAGTTT,0.37
